According to publication PMC4336329 (PLoS ONE, 2015):
The campaign covered roughly 310,000 compounds. About 2,200 (0.71%) showed an effect of 50% or more. The effect is printed as a negative number. The list shows a part of the results.

The compounds below were run against human ether-à-go-go-related gene (hERG) potassium channel (human, UniProt Q12809) (assay: primary screen, population patch clamp on CHO cells stably expressing hERG).
Sequence of human ether-à-go-go-related gene (hERG) potassium channel (Q12809 whole entry, looked up): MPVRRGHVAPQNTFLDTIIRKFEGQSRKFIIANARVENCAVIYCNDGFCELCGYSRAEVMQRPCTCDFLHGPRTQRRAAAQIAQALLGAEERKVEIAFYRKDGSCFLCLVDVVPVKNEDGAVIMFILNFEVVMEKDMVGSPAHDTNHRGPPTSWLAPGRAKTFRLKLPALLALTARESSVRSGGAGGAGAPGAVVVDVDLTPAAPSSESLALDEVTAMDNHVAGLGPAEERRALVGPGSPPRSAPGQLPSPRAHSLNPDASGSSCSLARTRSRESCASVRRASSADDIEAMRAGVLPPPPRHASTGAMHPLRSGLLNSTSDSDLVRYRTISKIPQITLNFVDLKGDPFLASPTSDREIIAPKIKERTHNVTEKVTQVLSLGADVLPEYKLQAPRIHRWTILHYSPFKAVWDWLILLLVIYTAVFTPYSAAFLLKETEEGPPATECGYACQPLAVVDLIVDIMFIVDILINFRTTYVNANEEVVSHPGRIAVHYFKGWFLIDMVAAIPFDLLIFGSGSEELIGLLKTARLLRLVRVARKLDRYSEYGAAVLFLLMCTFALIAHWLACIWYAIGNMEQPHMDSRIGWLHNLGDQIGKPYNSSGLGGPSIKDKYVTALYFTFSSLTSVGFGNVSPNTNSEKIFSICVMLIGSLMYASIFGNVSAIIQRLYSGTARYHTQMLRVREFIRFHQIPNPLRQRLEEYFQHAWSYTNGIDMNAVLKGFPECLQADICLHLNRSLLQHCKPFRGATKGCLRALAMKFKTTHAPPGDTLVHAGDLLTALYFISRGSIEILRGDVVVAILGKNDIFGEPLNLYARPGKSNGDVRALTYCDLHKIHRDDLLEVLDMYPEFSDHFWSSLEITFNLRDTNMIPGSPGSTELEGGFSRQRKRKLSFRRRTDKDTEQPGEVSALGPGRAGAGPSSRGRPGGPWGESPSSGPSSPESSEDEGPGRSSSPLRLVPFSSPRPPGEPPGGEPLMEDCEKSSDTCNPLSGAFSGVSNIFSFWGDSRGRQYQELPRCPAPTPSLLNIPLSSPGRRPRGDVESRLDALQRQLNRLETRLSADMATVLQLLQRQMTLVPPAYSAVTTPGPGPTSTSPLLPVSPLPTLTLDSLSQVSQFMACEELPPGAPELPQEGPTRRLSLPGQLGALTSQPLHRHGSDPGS

SMILES	hERG current change (%, negative = inhibition) at 1uM
COc1ccc(-c2nn(-c3ccccc3)cc2/C=N/NC(=O)c2cccc(S(=O)(=O)Nc3ccccc3Cl)c2)cc1	-23.1%
COc1ccc(C(CNC(=O)C(CC(C)C)NS(=O)(=O)c2ccc(C)cc2)N2CCOCC2)cc1 (stereo not shown)	10.2%
CSCCC(C(=O)Nc1ccc2c(c1)OCO2)N1C(=O)c2ccccc2C1=O (stereo not shown)	4.06%
Cc1c(C(=O)O)oc2ccc3c(c12)C(O)CC(C)(C)O3 (stereo not shown)	12.4%
Cc1ccccc1N1CCN(C2CCCN(C(=O)c3cnsn3)C2)CC1 (stereo not shown)	-36%
COc1cccc(-c2ccc(NC(=O)C3CCCN(Cc4cnc(C)s4)C3)cc2)c1 (stereo not shown)	13.2%
CCCCNC(=S)N/N=C/c1ccc(C)s1	1.45%
CC12CCC(C(=O)N(CCCCN3CCN(c4ccccn4)CC3)C1=O)C2(C)C (stereo not shown)	9.29%
O=C(Cc1ccc(F)cc1)Nc1cccc2cccnc12	11.1%
S=C(NC1CC1)N1CCc2ccccc2C1	4.36%
COCCN1CCn2c(nc3cc(NC(=O)Cn4nc(C)c5ccccc5c4=O)ccc32)C1	12.9%
COc1ccc(CCN2C(=O)CC(C(N)=O)SC2=Nc2ccccc2)cc1OC (stereo not shown)	0.0534%
Cl.O=C(/C=C/c1cn(-c2ccccc2)nc1-c1ccc2c(c1)OCCO2)NCCCN1CCOCC1	4.34%
Cc1cc(OCC(=O)N2CCC(C(=O)NCC(C)C)CC2)c2c3c(c(=O)oc2c1)CCCC3	7.79%
CCOC(=O)c1sc(NC(=O)/C=C/c2ccc(F)cc2)nc1C	7.41%
Cc1cc(NC(=O)CCCN2C(=O)/C(=C\c3cccs3)SC2=S)no1	17.4%
Cn1c2ccccc2c2cc(/C=N/NC(=O)c3cc(O)cc(O)c3)ccc21	15%
COc1ccc(-n2c(SCc3ccc([N+](=O)[O-])cc3)nnc2-c2ccccc2)cc1	-6.19%
CC1CCC(NC(=O)CNC(=S)N2CC3CC(C2)c2cccc(=O)n2C3)CC1 (stereo not shown)	11.6%
O=C(NCC(=O)N(c1cccc(F)c1)C(C(=O)NC1CCCC1)c1cccnc1)c1cccs1 (stereo not shown)	5.16%
CCOC(=O)c1cc2c(=O)n3ccccc3nc2n(CCCOC)c1=NC(=O)c1cccnc1	-18.4%
CCOc1ccc(NC(=O)C(C)NS(=O)(=O)c2ccc(NC(C)=O)cc2)cc1 (stereo not shown)	15.8%

SMILES	hERG current change (%, negative = inhibition) at 1uM
Cc1noc(-c2ccccc2OC(=O)c2ccccc2)n1	6.26%
Cn1c(=O)c2c(ncn2CC(O)CO)n(C)c1=O (stereo not shown)	6.11%
Cc1cccc(C(=O)N[C@H](C(=O)Nc2cc(S(=O)(=O)N3CCCCC3)ccc2C)C(C)C)c1	14.5%
COc1ccccc1N1CCN(C(=O)C2CCCN(S(=O)(=O)c3ccc4c(c3)CCCN4C(C)=O)C2)CC1 (stereo not shown)	14.1%
CC(=O)c1cnc2c(-c3ccccc3)c(C)nn2c1C	13.9%
COC(=O)c1ccccc1N=Cc1c(O)[nH]c(=S)[nH]c1=O	12.9%
COc1ccc([C@H]2CC(=O)C=C(c3cccc(Cl)c3)C2)cc1	11.8%
Cc1ccc(N/N=C/c2c(O)n(-c3ccccc3)c(=O)[nH]c2=O)cc1	14.6%
Cc1ccc(OCc2cc(C(=O)N(C)Cc3cc(C4CC4)n[nH]3)no2)cc1C	13.4%
Cc1cc(Cl)ccc1NC(=S)NCc1ccc(S(N)(=O)=O)cc1	9.94%
CCOc1ncccc1C(=O)OCC(=O)c1ccc(C)c(C)c1	11.4%
Cc1ccc(S(=O)(=O)N(NC2=NS(=O)(=O)c3ccccc32)C(=O)c2ccccc2)cc1	-10.8%
Cn1c(C(=O)OC(C(=O)NC2CCCCC2)c2ccccn2)cc2sccc21 (stereo not shown)	11.5%
Cc1cccc(C)c1N1CCN(S(=O)(=O)N(C)C)CC1	12%
O=C(C1=NN[C@@H]2C(=O)N(c3ccccc3C(F)(F)F)C(=O)[C@H]12)c1cnccn1	5.43%
O=c1[nH]c2ccc(S(=O)(=O)N3CCN(C4CCCCC4)CC3)cc2[nH]c1=O	-2.82%
CCOC(=O)N1CCN(C(=O)CCc2ccc(S(=O)(=O)NCCc3ccccc3)cc2)CC1	-4.75%
COc1cccc(CN(C)C(=O)c2cccnc2SC)c1OC	7.4%
CCC(C)(C)n1nnnc1CN1CCC(c2nc3ccc(C)cc3[nH]2)CC1	-25.7%
Cc1cccc(C(=O)N/N=C/C(C)Cc2ccc3c(c2)OCO3)c1 (stereo not shown)	3.08%
CC1CCC(NC(=O)Cn2c3c(c(-c4ccccc4Cl)cc2=O)CCC3)CC1 (stereo not shown)	9.99%
